The values below come from the supplement of paper PMC11417369.

± gives the standard deviation of the averaged measurements. This is one part of the list.

This assay concerns PfAP2-I AP2 domain 3 (GST-tagged). The experiment in a line: gcPBM binding intensity (ln(normalized median fluorescence intensity)); higher = stronger DNA binding. In short, it runs like this:
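Binding intensity values are the highest Masliner-normalised natural-log median intensity among replicate spots of either probe orientation. The binding step lasted 1 h in 1× PBS with 1% milk, 0.2 mg/ml BSA, 0.5% salmon testes DNA and 0.03% Triton X-100, using GST-tagged P. falciparum DNA-binding domains expressed in E. coli on an Agilent 4 × 180k array of primer-extended double-stranded 36-bp intergenic genomic probes plus negative controls. Alexa488 anti-GST antibody and a 488 nm scan detected bound protein.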
“TTTACATCCAAAAACTGTACACTTATTTTATAATTC [XGTACX_site5332]”: the “gcPBM binding intensity (ln)” value is 7.88 ± 0.34.
With “ATATATATAATATGTAGTACTTTCCTCTCAAATCAT [XGTACX_site7766]” the figure was 8.18 ± 0.35.
Take “ATCAAAAATATAAAAAATATAAACAATTTATTATCA [CACACA_negctrl_site768]”: the “gcPBM binding intensity (ln)” value turned out to be 7.32 ± 0.47.
With “AATAAGTAACAAAATACACACATATATATAATTATA [CACACA_site1837]”, the “gcPBM binding intensity (ln)” value was 7.66 ± 0.55.
Next, “GAATCATATTTAAACACACATACATATATATATATA [CACACA_site3352]”: 9.11 ± 0.48; “AAAAAATACAAGAAATGTACTCAAGCATATATTAAT [XGTACX_site3325]”: 7.81 ± 0.64.
On to “TTTTTACTATAATTAAAATTAACAAAAGAAAATGAT [GTGCAC_negctrl_site52]”, for which the “gcPBM binding intensity (ln)” value is 7.59 ± 0.57.
With “TTCATTATTATTAACATACACACGTGTTATATACAC [CACACA_site4112]” the figure was 8.05 ± 0.54; with “TTCATTTTTTAAGCATCACACACGAAAGAACAAAGT [CACACA_site1122]”, 8.31 ± 0.53; with “TTTCCAAATTGTTGACGGACACTCACGAATAGTTAT [XGTACX_site5720]”, 7.87 ± 0.42.
Regarding “CATATGTATATGACTACACACAAGGGTGTACATATA [CACACA_site1164]”, the “gcPBM binding intensity (ln)” value is 7.93 ± 0.21.
With “ACATGAAGATATTTTTGTCCGTACAAATTCATATGA [XGTACX_site1837]” the figure was 7.72 ± 0.35; with “AGTATATCAAAATACATACACACATTTGTATATACA [CACACA_site2697]”, 7.71 ± 0.56; with “GTCCTCATCCACTATGCACACAAAAAAGAAATACAC [CACACA_site9131]”, 9.825 ± 0.078.
With “TTTTTTTTTTTTTTTTGTACACAAATTTATTGTCTA [XGTACX_site2680]” the figure was 8.13 ± 0.79.
Next, “TACGTTATGTTGAATAGTACAATTTGGTGAACAGGT [XGTACX_site1729]”: 8.26 ± 0.61; “TCATTTTATTATTCTACACACTTATCTATAATTACA [CACACA_site6168]”: 8.21 ± 0.45.
With TTACATGTACAAAAGTTGCACTTCATACACTTTTAT, the “gcPBM binding intensity (ln)” value is 8.85 ± 0.42.
With “ATTCTATATATGTGCACACAAAAGATATATATATAT [CACACA_site2124]” the figure was 10.3 ± 0.18.
Consider “CGAAGGTTTGGCCATGCATGTTATAAGAATATATGT [TGCATGCA_site441]”, for which the “gcPBM binding intensity (ln)” value was 7.65 ± 0.79.
For the sequence “TCATTTCAATACACAAGTACGTATATGGTTATATTG [XGTACX_site6021]”, the “gcPBM binding intensity (ln)” value is 7.71 ± 0.45.
Take “AATATAAAATAATGCACACATAAACAAAAAATCAAA [CACACA_site1371]”: the “gcPBM binding intensity (ln)” value amounted to 10.9 ± 0.88.
With “TATCTTTTTACAATAGTGCATATGTTATCATTAATA [GTGCAC_site9489]” the figure was 9.54 ± 0.18; with “TTTATTTATTAATACACACACACACCCAGACAAAAT [CACACA_site4292]”, 8.77 ± 0.13.
Consider “AGATATATAAATATTACACACTATATATCTATTTAT [CACACA_site6466]”, for which the “gcPBM binding intensity (ln)” value was found to be 7.83 ± 0.6.
Consider “ATTTGCCCATTTAATTAACACACAAATGTTTATATT [CACACA_site8145]”, for which the “gcPBM binding intensity (ln)” value worked out at 8.24 ± 0.61.
On to “TTTCTTTTTTGATGCGTGCACATTTGTTTATTTTTC [GTGCAC_site9792]”, for which the “gcPBM binding intensity (ln)” value was determined as 9.63 ± 0.65.
With “ACTATTTAATATAGGGTGCAACTTTTTCAAGTAAAT [GTGCAC_site9853]” the figure was 9.24 ± 0.52; with “GTATGCATTATATACACACATACATTTATATATTCT [CACACA_site115]”, 8.23 ± 0.63; with “AGTAATAAAAGTAGAAGTACAATACTTCAAAGATAT [XGTACX_site8562]”, 8.02 ± 0.42.
With “GTTCTAAAAGTTAATGCATGTTATAAGTTTCCCTCT [TGCATGCA_site94]” the figure was 8.18 ± 0.93; with “TATTTCAAAATATGGGTGCAGTTCTTCATGATATAT [GTGCAC_site9658]”, 9.93 ± 0.16; with “TGCTATTTTTTCCTTTTTTTGTATCACAATCATATA [CACACA_negctrl_site1576]”, 7.78 ± 0.52.
With “TTATACTTTGGGTGGTGTACTATATTATGCTTATAA [XGTACX_site1106]” the figure was 8.81 ± 0.38.
Turning to “ATGTATATATTTACGTGTACATATTCATGTGATATC [XGTACX_site5871]”, the “gcPBM binding intensity (ln)” value was 7.8 ± 0.49.
Next, “ATTAAACATAAATATGCACACATATACATATATTCA [CACACA_site8850]”: 8.8 ± 0.085.
As to “TGTGTTCATATATGCACACGCATATATATTATTGTT [CACACA_site3822]”, the “gcPBM binding intensity (ln)” value came to 9.1 ± 0.25.
Take TGTGTCCATTGAACAGTGCAATAAAAACTTTTACAT: the “gcPBM binding intensity (ln)” value turned out to be 11.2 ± 0.59.
With “ATAAATATGGAGCACACACACATAAACATACATATA [CACACA_site421]” the figure was 8.27 ± 0.32; with “ATTTTTATTCTTATTACACACCTAAATATAAAATAT [CACACA_site2064]”, 8.34 ± 0.63.
Next, “TTTATATTTATATTGGGTACATAAAAAGCTTGAAAT [XGTACX_site8248]”: 7.95 ± 0.35; “AAAAAAAAAAAACACACACACACACCGATACATACA [CACACA_site8849]”: 7.92 ± 0.45.
“TTTTTTTTTTTGTGGTGTACCTTTATTTCCTTTTAG [XGTACX_site6934]”: the “gcPBM binding intensity (ln)” value worked out at 8.29 ± 0.76.
As to “AAAGGGGAAAATATTATACATATAATAAATCCGTAT [XGTACX_negctrl_site355]”, the “gcPBM binding intensity (ln)” value was 7.46 ± 0.77.
Next, “ATTCATTTTATTTTTTCACACACACCGATATATATA [CACACA_site9097]”: 8.1 ± 0.56; “ATTTTTCAATTATGTAGTACATTGATATTTTCATTT [XGTACX_site5369]”: 7.78 ± 0.47; “ACCCCCATATTCTTTTTACACACTTGAATAAAAAAT [CACACA_site8319]”: 8.8 ± 0.29.
As to “CAAATACACGGACACACACACACAAAAAAAAAAAAA [CACACA_site6385]”, the “gcPBM binding intensity (ln)” value was found to be 8.36 ± 0.014.
With “AAATTATTGTAAAATAGTACAGTGAAACATAAAGTT [XGTACX_site589]” the figure was 8.12 ± 0.52; with “TTTATTTGGACATATACACACTTAAATATGTTTATT [CACACA_site6021]”, 7.59 ± 0.47; with “TTTATTTTGTTTTCTTGTACATAAATAATTACATAT [XGTACX_site4227]”, 7.87 ± 0.67.
For “TAAATACAAGTAAAAAGTACAGAAAAATTATATATA [XGTACX_site1758]”, the “gcPBM binding intensity (ln)” value was 7.58 ± 0.47.
Next, “TGATTCACTATAGTAGTGCATATTATATATATATAT [GTGCAC_site9975]”: 10.3 ± 0.25; “TATAATAATTCATAATGTACTTTTATCAAAAAAGTA [XGTACX_site6868]”: 7.57 ± 0.32; “AAGAGAAATGGGCACACACACACATATTATAGATAT [CACACA_site6828]”: 7.95 ± 0.63.
As to “TATAAAAAATTCAATACACACCATATATAAATATAT [CACACA_site6060]”, the “gcPBM binding intensity (ln)” value stood at 7.55 ± 0.4.
With “AAAAAAAAATATATATATATATATATATAATAAAAA [CACACA_negctrl_site639]” the figure was 7.92 ± 0.46.
